In all, about 52,000 compounds went through this assay and about 4,300 (8.3%) were called active. Cut-off read from the data, not from the text of the source: active = survival mostly below about 52% (no sharp cut-off); inactive = mostly above about 56%. Some of the results follow.

This assay deals with DeltatarO mutant. Put plainly: S. aureus survival, RN4220 and DeltatarO strains – OD600, teichoic acid synthesis inhibitors, primary screen (AID 463173). The settings on record: S. aureus RN4220 wild type/DeltatarO growth, OD600, 18 h, stronger effect = lower value, screened at 18.75 µg/mL (by protocol).
Regarding `COc1cc(OC)c(NC(=O)CN(C)S(=O)(=O)c2ccc3c(c2)CCCC(=O)N3)cc1Cl`, the survival was active: 6%.
Take `CCc1ccc(C(=O)c2cn(CC(=O)Nc3cccc(C)c3C)c3nc(C)ccc3c2=O)cc1`: the survival was inactive: 125%.
On to `Cc1cc(NC(=O)c2ccco2)cc(-c2nc3cc(Cl)ccc3o2)c1O`, for which the survival is inactive: 79%.
With `COc1ccc(Cl)cc1NC(=O)CN1C(=O)CSc2ccc(S(=O)(=O)N3CCCC3)cc21`, the survival was inactive: 94%.
For `Cc1nnc(NC(=O)CC2CC3CCC2C3)s1` (centres undefined), the survival is inactive: 59%.
The figure for `CCOc1ccc(NC(=O)CC2C(=O)N(c3cccc(C)c3)C(=O)N2CCC2=CCCCC2)cc1` (centres undefined) is inactive: 112%; for `CCOc1ccc(NC(=O)CCc2c(C)nc3c(c(C)nn3-c3ccccc3)c2C)cc1` it is inactive: 55%.
`CSc1ccc(/C=C/c2nc3ccccc3n2S(=O)(=O)c2ccc(F)c(C)c2)cc1`: the survival was inactive: 91%.
`Cc1ccc(S(=O)(=O)n2nc(C)c(S(=O)(=O)N3CCCCC3)c2C)cc1`: the survival is inactive: 86%.
The figure for `CCc1ccc(CN(Cc2ccco2)C(=O)c2ccc(C)cc2)cc1` is active: 41%; for `CC(=O)Nc1ccccc1-c1nc2ccccc2n(C(C)C(=O)Nc2cccc(C)c2C)c1=O` (centres undefined) it is inactive: 100%.
In the case of `O=S(=O)(c1ccc(Cl)cc1)c1nnn2c1nc(NCc1ccccc1)c1sccc12`, the survival is inactive: 39%.
As to `CC(=O)N(Cc1cccnc1)c1nc2cc(C)cc(C)c2s1`, the survival was inactive: 74%.
Turning to `O=C(Nc1ccccc1)N(Cc1cccs1)c1ccc(Cl)cc1`, the survival was inactive: 105%.
Consider `Cc1ccc2ccc3cc(C(=O)Nc4ccc(C)c(F)c4)nc3c2[nH]1`, for which the survival is inactive: 71%.
For `CCOC(=O)N1CCN(S(=O)(=O)N2CCCC(C(=O)NCc3ccccc3OC)C2)CC1` (centres undefined), the survival was inactive: 81%.
The figure for `CC(=O)N1CCCC1c1nc2ccccc2n1Cc1cc(C)ccc1C` (centres undefined) is inactive: 106%; for `CCOC(=O)c1ccc(CN(Cc2ccc(F)cc2)S(=O)(=O)c2cc(C(=O)Nc3ccccc3CC)ccc2F)cc1` it is inactive: 135%; for `COc1ccc(NC(=O)C2CCCN(S(=O)(=O)c3ccc4[nH]c(=O)ccc4c3)C2)cc1OC` (centres undefined) it is inactive: 83%.
As for `Cc1ccc(CNC(=O)c2cc(Sc3ccc(F)cc3F)nc3ccccc23)cc1`, the survival was inactive: 107%.
For the compound `Cc1cccc(NC(=O)CSc2nc(C)c(Cc3ccccc3)c(=O)[nH]2)c1C`, the survival was inactive: 77%.
In the case of `COc1ccc(CCNC(=O)C2=C(C)C(=O)OC23CCCCC3)c(OC)c1` it was inactive: 76%; in that of `CN(C)C(=O)CSc1nnc(-c2ccncc2)n1C`, inactive: 89%.
In the case of `COc1ccc(CNC(=O)CCc2c(C)nn(-c3ccc(N4CCOCC4)nn3)c2C)cc1` it was inactive: 123%.

These data come from PubChem BioAssay AID463173 (ICCB-Longwood Screening Facility, Harvard Medical School, 2010).
